Experimental data taken from PubChem BioAssay AID1346428 (National Center for Advancing Translational Sciences (NCATS), 2018).
“And” between values parts separate entries of the source, which are not always exact repeats. Equal entries are not always repeated. Among all 48,000 compounds or so, about 1,200 (2.5%) were called active. Another 2% or so got no clear call; they are omitted.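 Rule for the calls: active = activation of at least 60% and not above a set upper limit (about 1 call in 100 departs from these limits); inconclusive = activation of 40% to 60%, or above that upper limit; inactive = activation under 40%.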 Some of the results follow.

What follows are molecules tested against Probable G-protein coupled receptor 32 (Homo sapiens) (UniProt O75388) (assay: qHTS for Agonists of Human Resolvin D1 Receptor DRV1). Conditions: CHO-K1 GPR32 beta-arrestin PathHunter luminescence, 90 min; at 76.9 µM; active compounds read high; zero percent set by DMSO-only wells.
Chain of UniProt O75388 (O75388 whole entry, looked up): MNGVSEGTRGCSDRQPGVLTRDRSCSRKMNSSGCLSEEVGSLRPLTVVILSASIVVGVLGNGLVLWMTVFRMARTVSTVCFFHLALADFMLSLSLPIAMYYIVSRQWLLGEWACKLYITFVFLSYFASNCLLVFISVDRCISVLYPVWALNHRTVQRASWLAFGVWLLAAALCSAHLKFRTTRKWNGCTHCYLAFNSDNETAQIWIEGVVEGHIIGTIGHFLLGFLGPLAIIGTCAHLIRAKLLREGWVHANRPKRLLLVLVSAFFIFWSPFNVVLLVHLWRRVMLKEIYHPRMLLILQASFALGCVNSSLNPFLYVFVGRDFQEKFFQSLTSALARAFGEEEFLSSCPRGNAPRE
Method in brief: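 Beta-arrestin recruitment read-out: luminescence from complemented beta-Gal in CHO-K1 GPR32 PathHunter cells, measured 1 h after detection reagent at ambient temperature following 90 min compound exposure at 37 °C; DMSO served as basal (EC0) control.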
Note: 0% is about no effect.

activation, inactive:
CC(=O)N1CCCc2ccc(NS(=O)(=O)c3ccc(C)c(C)c3)cc21 -13.7%
CCC(=O)N1CCc2cc(Br)cc(S(=O)(=O)N3CCCC(C(=O)NCc4cccc(OC)c4)C3)c21 (configuration not stated) -9.64%
Cc1nc2c(-c3ccccc3)c(C)nn2c(C)c1CCC(=O)N1CCN(c2ccccc2)CC1 -1.78%
COc1ccc(C(=O)COC(=O)c2cc(-c3ccccc3)nc3c(C)cccc23)cc1 -7.48%
O=C1CCc2cc(S(=O)(=O)NCc3ccc(F)cc3)cc3c2N1CC3 26.2%
Cc1ccc(Cc2nc3ccccc3nc2SCC(=O)N2CCN(c3ccccc3F)CC2)cc1 -11.7%
CCCS(=O)(=O)c1ncc(Cl)c(C(=O)Nc2c(C(=O)c3ccccc3)oc3ccccc23)n1 8.57%
CCCCCn1c(NCc2ccccc2OC)nc2ccccc21 10.1%
CCc1cc2c(cc3c(=O)n(CC(=O)N4CCC(C)CC4)nc(CC)n32)s1 -2.53%
NCCCNCCSP(=O)(O)O -5.07% and 1.57%
Cn1nc(C(=O)N2CCN(c3cccc(Cl)c3)CC2)c2c1-c1ccccc1S(=O)(=O)C2 -14.9%
O=C(Nc1nnc(S(=O)(=O)N2CCOCC2)s1)c1cccc(F)c1 49.3%
CCS(=O)(=O)N1CCc2cc(C(=O)Nc3ccc(C)c(Cl)c3)ccc21 15.7%
CCCCOc1ccc(C(=O)NCC2(N3CCN(C)CC3)CCCCC2)cc1 -9.84%
CCc1ccc(-n2c(=O)c3ccc(C(=O)NCCc4ccccc4)cc3n(CC(N)=O)c2=O)cc1 -5.07%
Cc1ccc2c(c1)C(c1ccccc1)N(C(=O)c1ccc(OC(C)C)cc1)CC(=O)N2 (configuration not stated) -15.1%
Cc1c2cnn(-c3ccccc3)c(=O)c2c(C)n1CC(=O)NCc1ccccc1Br -13.8%
Cc1cccc(CCNC(=O)Cn2ncc3c(=O)oc4ccccc4c32)c1 30.7%
CC(=O)c1cccc(NC(=O)C(Cc2ccccc2)NS(=O)(=O)c2ccc(Br)s2)c1 (configuration not stated) 33.5%
O=C(Nc1ccc(Cl)cc1)N1CCC(CN2CCCC2)CC1 -18.9%
CCOC(=O)C1CCN(c2nc(-c3ccc(Br)cc3)nc3ccccc23)CC1 -14.9%
COc1ccc(OC)c(NC(=O)c2cn3c4c(ccc(Cl)c4c2=O)OC(C)C3)c1 (configuration not stated) 17%
COc1ccc(Cn2cc(C(=O)c3ccc(OC)cc3)c(=O)c3cc4c(cc32)OCCO4)cc1 17.4%
CCOc1ccc(NC(=O)Cc2coc3ccc(C)cc23)cc1 10.4%
COc1ccc(-c2cc(C(F)F)n3ncc(C(=O)Nc4cc(OC)ccc4OC)c3n2)cc1 -3.65%
CCc1cnc2c(c1SCC(=O)Nc1ccc(Cl)cc1)c(=O)n(C)c(=O)n2C -9.74%
CC(COc1ccccc1)NC(C)C(O)c1ccc(O)cc1 (configuration not stated) 8.04%
